The source of these data is PubChem BioAssay AID1240 (Sanford-Burnham Center for Chemical Genomics, 2008).

Among all 50,000 compounds or so, about 800 (1.6%) showed an effect of 50% or more. The list shows a part of the results.

This assay concerns the target Bcl-2-like protein 10 (Homo sapiens) (UniProt Q9HD36). The assay can be described thus: TR3 peptide-Bcl-B binding displacers, biochemical primary FP assay, phenotype converters (AID 1240).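 Also: 0% = Bcl-B with tracer peptide and DMSO and 100% = tracer peptide lacking Bcl-B.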 The settings on record: GST-Bcl-B / FITC-TR3 peptide fluorescence polarization; stronger effect = higher value; compound at 3.75 mg/L. (Polarisation of emitted light reports the rotation of a fluorescent probe.)
UniProt Q9HD36, sequence (Q9HD36 whole entry, looked up): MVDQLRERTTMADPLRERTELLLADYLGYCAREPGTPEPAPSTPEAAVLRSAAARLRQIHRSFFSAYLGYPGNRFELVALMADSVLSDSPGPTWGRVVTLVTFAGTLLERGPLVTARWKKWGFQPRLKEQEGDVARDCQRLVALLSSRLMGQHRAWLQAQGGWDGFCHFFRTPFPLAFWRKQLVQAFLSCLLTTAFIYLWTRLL
For `CCOC(=O)c1ccc(NC(=O)c2c(Cl)cccc2Cl)cc1`, the displacement was found to be 9.6%.

For `Cc1cc(C=O)c(C)n1-c1ccc(Br)cc1`, the displacement was -3.8%.

As for `COc1ccc2c(Cl)c(C(=O)N3CCN(c4ccccc4)CC3)sc2c1`, the displacement came to 10.2%.

Regarding `COc1cccc(CN2CCN(Cc3cccc(F)c3)CC2)c1OC`, the displacement worked out at 3.2%.

For the compound `Cc1ccc(/C(N)=N/OC(=O)c2cccc(Br)c2)cc1`, the displacement is 8.8%.

Turning to `COc1ccc(-c2ccc(CO)o2)cc1`, the displacement came out at 12.6%.

Turning to `Cc1ccccc1C(=O)Nc1sc2c(c1C(=O)N1CCN(Cc3ccccc3)CC1)CCC(C)C2` (centres undefined), the displacement is -3.1%.

Consider `CCOC(=O)c1ccc(-c2ccc(/C=C3/SC(=S)N(CC)C3=O)o2)cc1`, for which the displacement is 31%.

In the case of `COc1cccc(N2C(=O)NC(=O)/C(=C/c3ccoc3)C2=O)c1`, the displacement is -64.3%.

With `Cc1ccc(N2CC(C(=O)Nc3nccs3)CC2=O)cc1` (centres undefined), the displacement amounted to 7.1%.

For `O=S(=O)(Nc1cc(Br)c(O)c2ccccc12)c1cc(Cl)ccc1Cl`, the displacement came to 21%.

For the compound `COc1ccc(-c2cc(C(=O)Nc3nc(C)c(C)s3)c3ccccc3n2)cc1OC`, the displacement was 7.9%.

`CCC1=[N+](C)c2cccc3cccc(c23)N1C`: the displacement amounted to 3.9%.

For `COC(=O)C1(S(=O)(=O)c2ccc(Cl)cc2)CC1`, the displacement is -2.6%.

On to `Cc1cccc(/C(N)=N/OC(=O)c2ccco2)c1`, for which the displacement is -7.6%.

In the case of `NC(=O)c1ccc(NC(=O)c2ccc(I)cc2)cc1`, the displacement was 10.8%.

On to `O=C(Nc1ccc(-c2nc3ccccc3c(=O)o2)cc1)c1cccs1`, for which the displacement was -8.4%.

Take `O=C(Nc1nc2ccc([N+](=O)[O-])cc2s1)c1cc(Cl)cc(Cl)c1`: the displacement was 11.9%.

As for `CCOc1ccc(NC(=O)c2c(NC(=O)C(C)(C)C)sc3c2CCCC3)cc1`, the displacement was -3.2%.

In the case of `CSc1nc2c(c(=O)n(C)c(=O)n2C)n1C`, the displacement was 0.3%.

Turning to `O=C(O)c1nn2c(c1Cl)NC(c1cccs1)CC2C(F)(F)F` (centres undefined), the displacement stood at 2.8%.

`CCc1nnc(NC(=O)CN2CCN(Cc3ccccc3)CC2)s1`: the displacement turned out to be 3%.

In the case of `O=C(Oc1ccc(Cl)cc1Cl)c1c(F)cccc1F`, the displacement worked out at 14.4%.

For the compound `O=C(Nc1ccc(Cl)cc1)/C(=C\c1cccc([N+](=O)[O-])c1)NC(=O)c1cccs1`, the displacement came to 2.4%.

In the case of `COCCN(CCOC)Cc1c(O)ccc2c3c(c(=O)oc12)CCC3`, the displacement turned out to be 9.5%.

For `Cc1ccccc1OCc1nc(-c2ccc(Cl)cc2)no1`, the displacement turned out to be 10.3%.

For the compound `Cc1cc(C)nc(SCC(=O)Nc2ccc(F)cc2)n1`, the displacement was -6.7%.

For `Cc1cccc2sc(NC(=O)c3cccc([N+](=O)[O-])c3)nc12`, the displacement was -11.3%.

As to `O=C(O)CC(Cc1ccc(Br)cc1)C(=O)NCc1ccccc1` (centres undefined), the displacement was found to be 15.8%.

For the compound `CC(=O)c1cccc(NC(=O)c2ccccc2C)c1`, the displacement came out at 14.7%.

With `O=C1OC(c2ccc(F)cc2)=N/C1=C\c1ccccc1[N+](=O)[O-]`, the displacement was 4.1%.

As for `CCCC(=O)Nc1ccc(-c2nc3cc(C)c(C)cc3o2)c(O)c1`, the displacement turned out to be 96.8%.

Turning to `CCOc1ccc(C(=O)Nc2cc(-c3nc4ccccc4s3)ccc2Cl)cc1Cl`, the displacement is 30.8%.

Consider `COc1ccc(C(=O)N=Nc2c(O)[nH]c3c(C)cc([N+](=O)[O-])cc23)cc1`, for which the displacement turned out to be 115%.

As for `CCN(CC)S(=O)(=O)c1ccc(NC(=O)c2ccc(F)cc2)cc1`, the displacement is -6.9%.

As for `CCOC(=O)COc1ccccc1/C=N/NC(=O)COc1ccc(Br)cc1OC`, the displacement is -4.2%.

As to `COc1ccc(NC(=O)CCCN(C)S(=O)(=O)c2ccc(C)cc2)cc1`, the displacement was determined as 2.5%.

As to `CC(C)C(NC(=O)c1ccc(CN(c2ccccc2)S(C)(=O)=O)cc1)C(C)C`, the displacement was -4.1%.

In the case of `COc1ccc(C2Nc3ccccc3C(=O)N2c2ccccc2)cc1COc1ccc(NC(C)=O)cc1` (centres undefined), the displacement was -6.3%.

In the case of `O=C(Nc1cccc(F)c1)C1CC(=O)N(c2ccc(F)cc2)C1` (centres undefined), the displacement amounted to 6.2%.

Regarding `COC(=O)CN(c1cc(Cl)cc(Cl)c1)S(C)(=O)=O`, the displacement was 0.9%.

For the compound `COc1cc(/C=C(/C#N)C(=O)Nc2cccc(Br)c2)cc(OC)c1O`, the displacement was -114%.

Regarding `COc1ccc(-n2c(-c3cc(OC)c(OC)c(OC)c3)n[nH]c2=S)cc1`, the displacement is -13.9%.

For the compound `COc1ccccc1N1CCN(/N=C\c2cccc(O)c2)CC1`, the displacement was -1%.

For the compound `O=S(=O)(Nc1ccc(F)c(Cl)c1)c1ccccc1Cl`, the displacement worked out at 6.5%.

`N#Cc1c(N)[nH]c(=S)c(C#N)c1-c1cccc(O)c1`: the displacement was 4.5%.

In the case of `COc1cccc(NC(=O)C(=O)NCc2ccccn2)c1`, the displacement was -7.8%.

In the case of `CCOC(=O)c1sc(N/N=C/c2ccccc2)nc1C`, the displacement was -1.5%.

In the case of `O=C(COC(=O)c1cc2ccccc2s1)Nc1cccc2ccccc12`, the displacement was 12.7%.

With `COc1ccc(OC)c(NC(=O)CN(c2ccc(C)c(Cl)c2)S(C)(=O)=O)c1`, the displacement was -5%.

For `Cn1c(=O)c(Cl)c(O)c2ccccc21`, the displacement stood at 11.6%.

In the case of `O=C1c2cccc3cccc(c23)C(=O)N1/N=C/c1ccco1`, the displacement was 25.1%.

For the compound `O=C(Nc1ccc2c(c1)C(=O)OC2)NC1CCCCC1`, the displacement came to 10.8%.

Turning to `O=[N+]([O-])c1cc(C(F)(F)F)ccc1NCCNC(=S)Nc1ccc(Cl)cc1`, the displacement was -6.5%.

Consider `COc1cc(CN2CCN(CC3CC4C=CC3C4)CC2)cc(OC)c1O` (centres undefined), for which the displacement was -1.3%.

Take `COc1cccc(C(=O)NNC(=O)c2cc([N+](=O)[O-])cc([N+](=O)[O-])c2)c1`: the displacement is -8.4%.

Regarding `N#CC1=C(N)NC(SCC(=O)c2ccc(Cl)cc2)=C(C#N)C12CCCC2`, the displacement is -21.2%.

For `C/C(=C\c1ccc(Br)cc1)C(=O)c1c(C)cc(C)[nH]c1=O`, the displacement came out at 10.8%.

With `O=C(Nc1ccc(/C=C/c2ccccc2)cc1)c1ccccc1[N+](=O)[O-]`, the displacement was found to be 3.3%.

For the compound `COc1ccc(/C=C2\C(=O)NC(=S)N(c3cccc4ccccc34)C2=O)cc1OC`, the displacement stood at 16.9%.

On to `COc1ccc(OCC(=O)Nc2ccc3oc(-c4ccccc4F)nc3c2)cc1`, for which the displacement was -6.5%.

With `COc1ccccc1NC(=O)Cc1ccc(F)cc1F`, the displacement amounted to 11.1%.

Take `Cc1ccc(C)c(S(=O)(=O)N2CCN(C)CC2)c1`: the displacement was 5.7%.

Regarding `O=C(Cc1ccccc1)Nc1ccc(N2CCCCC2)cc1`, the displacement was -9.7%.

With `COc1ccccc1OCC(=O)NC1CC(C)(C)NC(C)(C)C1`, the displacement is -9.2%.

As for `CCOC(=O)c1c(NC(=O)c2ccc(OC)c([N+](=O)[O-])c2)sc2c1CCCC2`, the displacement is -11.6%.

As for `CCc1ccc(N2CC(C(=O)NCc3ccc(C)cc3)CC2=O)cc1` (centres undefined), the displacement was found to be 9%.

Take `COc1ccc(C2C(C(=O)c3ccccc3)C(=O)CC(C)(O)C2C(=O)c2ccccc2)cc1` (centres undefined): the displacement is -10.7%.

On to `CCOc1ccc(-c2ncnn2-c2cccc(Cl)c2)cc1`, for which the displacement stood at 6.5%.

As to `Cc1cccc(CC2S/C(=N/N=C/c3cccc([N+](=O)[O-])c3)N(c3ccccc3)C2=O)c1` (centres undefined), the displacement is 11.8%.

In the case of `COc1cccc(C(=O)Nc2nc3ccc(C)cc3s2)c1`, the displacement was -0.1%.

Regarding `CCC1=NN(C(=O)c2ccccc2Cl)C(O)(C(F)(F)F)C1` (centres undefined), the displacement was -1.9%.

On to `O=C(/C=C/c1ccc2c(c1)OCO2)c1ccncc1`, for which the displacement is -5.4%.

In the case of `CC(NC(=O)C12CC3CC(CC(C3)C1)C2)c1ccccc1` (centres undefined), the displacement was -4.1%.

For the compound `COc1ccccc1C1/C(=C(\O)c2ccccc2)C(=O)C(=O)N1c1cccc(Cl)c1` (centres undefined), the displacement was found to be 8.3%.

As for `NS(=O)(=O)c1ccc(CNC(=O)c2ccc(-c3ccccc3)cc2)cc1`, the displacement was -9.6%.

As to `CCOc1ccc(Br)cc1/C=N\NC(=O)c1cc(C)[nH]n1`, the displacement is -2.6%.

Turning to `COc1ccc(NC(=O)CN(c2ccccc2)S(=O)(=O)c2ccccc2[N+](=O)[O-])cc1OC`, the displacement turned out to be 15.4%.

For `CCOC(=O)C1=C(c2ccccc2)N=c2s/c(=C\c3cccnc3)c(=O)n2C1c1ccc(OC)c(OC)c1` (centres undefined), the displacement turned out to be 12.8%.

As to `COCCN1C(=O)/C(=C/C=C/c2ccccc2)SC1=S`, the displacement is 2.4%.

In the case of `Cc1ccc(-n2[nH]c(C)c(/C=N/NC(=O)c3cccc([N+](=O)[O-])c3)c2=O)cc1C`, the displacement was -7%.

Regarding `O=C(CSc1nnc(-c2ccco2)n1-c1ccccc1)NCCc1ccccc1`, the displacement is 2.8%.

Take `Cc1cccc(N(CC(=O)Nc2ccccc2F)S(=O)(=O)c2ccccc2)c1`: the displacement was -5%.

Consider `Cc1ccccc1NC(=O)c1ccc(C)c(S(=O)(=O)NCc2ccccc2)c1`, for which the displacement is -9.5%.

For the compound `COC(=O)C1=C(C)N=c2s/c(=C/c3ccc(OC(C)=O)cc3)c(=O)n2C1c1ccc(OC(C)=O)cc1` (centres undefined), the displacement came out at 6.8%.

Regarding `Cc1cccc(NS(=O)(=O)c2cc(C(C)(C)C)c(F)c(C(C)(C)C)c2)n1`, the displacement was -3.1%.

In the case of `O=C(NC12CC3CC(CC(C3)C1)C2)c1ccc(Cl)c(Cl)c1`, the displacement was 6.9%.

In the case of `O=C(c1ccc(Br)cc1)N1CCN(c2ccccn2)CC1`, the displacement was -2.2%.

For `Oc1ccccc1C=Nc1ccc2c(c1)ncn2-c1ccccc1`, the displacement was 15.5%.

Consider `O=C(Cc1ccc(Cl)cc1)Nc1ccc(Cl)cc1C(=O)O`, for which the displacement came to 13%.

For the compound `COc1cc(/C=C2\C(=O)NC(=S)N(c3ccccc3)C2=O)cc([N+](=O)[O-])c1O`, the displacement was found to be 15.6%.

For `O=c1/c(=C\c2ccccc2OS(=O)(=O)c2ccc3ccccc3c2)sc2nc3ccccc3n12`, the displacement came out at 4.6%.

Turning to `O=c1c2c(nc3cc(-c4ccccc4Cl)[nH]n13)CCC2`, the displacement is -5.2%.

In the case of `CC1(C)CC(=O)C=C(NCc2cccnc2)C1`, the displacement amounted to 16.4%.

`CCOC(=O)c1cc(=O)n2[nH]c(-c3ccc(Br)cc3)cc2n1`: the displacement amounted to 1.2%.

Regarding `Cc1ccc(-c2ccccc2)n1-c1cccnc1`, the displacement is -14.3%.

As to `CC(=O)C12c3ccccc3C(c3ccccc31)C1C(=O)N(c3cccc(C(=O)O)c3)C(=O)C12` (centres undefined), the displacement turned out to be 4.7%.

With `Cc1cc(C)cc(NC(=O)/C=C/c2ccc(C)o2)c1`, the displacement is -4.6%.

On to `NC(=O)CSc1cccc2cccnc12`, for which the displacement was -6.7%.

Consider `O=C(c1cc2cc(Br)ccc2oc1=O)N1CCSC1c1ccc([N+](=O)[O-])cc1` (centres undefined), for which the displacement turned out to be 12%.

For the compound `Cc1ccc(OCC(=O)Nc2cccc(Cl)c2Cl)c(Br)c1`, the displacement was determined as 11.1%.

For `CC(/C=N\NC(=O)c1ccc2c(c1)OCO2)c1ccccc1` (centres undefined), the displacement stood at 3.1%.

On to `Cc1ccc(N2C(=O)NC(=O)/C(=C\c3ccc(O)c(I)c3)C2=O)cc1`, for which the displacement is -9%.

Turning to `Oc1ccc(Br)cc1C1N(c2ccccc2)CCN1c1ccccc1`, the displacement amounted to 8.1%.

Turning to `Clc1ccc(CN2CCN(/N=C/c3ccc(Br)s3)CC2)cc1`, the displacement is 14.6%.

With `Cc1cc(NC(=O)CCN2C(=O)/C(=C\c3cccs3)SC2=S)no1`, the displacement was 90.4%.

For `COc1ccc(/C=C/C(=O)c2c(C)nc3ccc(Cl)cc3c2-c2ccccc2)cc1OC`, the displacement was -1.9%.

`COc1ccc(-c2ccc(/C=N/NC(=O)c3ccncc3)o2)c([N+](=O)[O-])c1`: the displacement turned out to be 10.6%.

In the case of `COc1cc(C2/C(=C(\O)c3ccc(F)cc3)C(=O)C(=O)N2CCCCCC(=O)O)ccc1O` (centres undefined), the displacement is -3.5%.
